± gives the standard deviation of the averaged measurements. Laboratory Escherichia coli strains with one amino-acid change in an essential protein, pooled on minimal glucose agar with carbenicillin or gentamicin at twice the control MIC (plus kanamycin and chloramphenicol for the plasmids), 48 h. Fold change of barcode share against drug-free plates; higher = less susceptible. Active = above 20 in both replicates (the paper's putatively resistant). '<' = one read or none on drug, '>' = one read or none on a drug-free plate. Shares are relative, so most strains fall below 1 when a few take over. Listed are strains with at least 15 reads on both drug-free plates, and hits; most hits rest on fewer reference reads. Replicate rank correlation about 0.5. Edits are read from barcodes.
B1: gltX M357P (protein)
chain: MKIKTRFAPSPTGYLHVGGARTALYSWLFARNHGGEFVLRIEDTDLERSTPEAIEAIMDGMNWLSLEWDEGPYYQTKRFDRYNAVIDQMLEEGTAYKCYCSKERLEALREEQMAKGEKPRYDGRCRHSHEHHADDEPCVVRFANPQEGSVVFDDQIRGPIEFSNQELDDLIIRRTDGSPTYNFCVVVDDWDMEITHVIRGEDHINNTPRQINILKALKAPVPVYAHVSMINGDDGKKLSKRHGAVSVMQYRDDGYLPEALLNYLVRLGWSHGDQEIFTREEMIKYFTLNAVSKSASAFNTDKLLWLNHHYINALPPEYVATHLQWHIEQENIDTRNGPQLADLVKLLGERCKTLKEPAQSCRYFYEDFAEFDADAAKKHLRPVARQPLEVVRDKLAAITDWTAENVHHAIQATADELEVGMGKVGMPLRVAVTGAGQSPALDVTVHAIGKTRSIERINKALDFIAERENQQ
B2: glyA F302A (protein)
chain: MLKREMNIADYDAELWQAMEQEKVRQEEHIELIASENYTSPRVMQAQGSQLTNKYAEGYPGKRYYGGCEYVDIVEQLAIDRAKELFGADYANVQPHSGSQANFAVYTALLEPGDTVLGMNLAHGGHLTHGSPVNFSGKLYNIVPYGIDATGHIDYADLEKQAKEHKPKMIIGGFSAYSGVVDWAKMREIADSIGAYLFVDMAHVAGLVAAGVYPNPVPHAHVVTTTTHKTLAGPRGGLILAKGGSEELYKKLNSAVFPGGQGGPLMHVIAGKAVALKEAMEPEFKTYQQQVAKNAKAMVEVALERGYKVVSGGTDNHLFLVDLVDKNLTGKEADAALGRANITVNKNSVPNDPKSPFVTSGIRVGTPAITRRGFKEAEAKELAGWMCDVLDSINDEAVIERIKGKVLDICARYPVYA
B3: glyA V223A (protein)
chain: MLKREMNIADYDAELWQAMEQEKVRQEEHIELIASENYTSPRVMQAQGSQLTNKYAEGYPGKRYYGGCEYVDIVEQLAIDRAKELFGADYANVQPHSGSQANFAVYTALLEPGDTVLGMNLAHGGHLTHGSPVNFSGKLYNIVPYGIDATGHIDYADLEKQAKEHKPKMIIGGFSAYSGVVDWAKMREIADSIGAYLFVDMAHVAGLVAAGVYPNPVPHAHVATTTTHKTLAGPRGGLILAKGGSEELYKKLNSAVFPGGQGGPLMHVIAGKAVALKEAMEPEFKTYQQQVAKNAKAMVEVFLERGYKVVSGGTDNHLFLVDLVDKNLTGKEADAALGRANITVNKNSVPNDPKSPFVTSGIRVGTPAITRRGFKEAEAKELAGWMCDVLDSINDEAVIERIKGKVLDICARYPVYA
B4: glyA V223Q (protein)
chain: MLKREMNIADYDAELWQAMEQEKVRQEEHIELIASENYTSPRVMQAQGSQLTNKYAEGYPGKRYYGGCEYVDIVEQLAIDRAKELFGADYANVQPHSGSQANFAVYTALLEPGDTVLGMNLAHGGHLTHGSPVNFSGKLYNIVPYGIDATGHIDYADLEKQAKEHKPKMIIGGFSAYSGVVDWAKMREIADSIGAYLFVDMAHVAGLVAAGVYPNPVPHAHVQTTTTHKTLAGPRGGLILAKGGSEELYKKLNSAVFPGGQGGPLMHVIAGKAVALKEAMEPEFKTYQQQVAKNAKAMVEVFLERGYKVVSGGTDNHLFLVDLVDKNLTGKEADAALGRANITVNKNSVPNDPKSPFVTSGIRVGTPAITRRGFKEAEAKELAGWMCDVLDSINDEAVIERIKGKVLDICARYPVYA
B5: glyA I239W (protein)
chain: MLKREMNIADYDAELWQAMEQEKVRQEEHIELIASENYTSPRVMQAQGSQLTNKYAEGYPGKRYYGGCEYVDIVEQLAIDRAKELFGADYANVQPHSGSQANFAVYTALLEPGDTVLGMNLAHGGHLTHGSPVNFSGKLYNIVPYGIDATGHIDYADLEKQAKEHKPKMIIGGFSAYSGVVDWAKMREIADSIGAYLFVDMAHVAGLVAAGVYPNPVPHAHVVTTTTHKTLAGPRGGLWLAKGGSEELYKKLNSAVFPGGQGGPLMHVIAGKAVALKEAMEPEFKTYQQQVAKNAKAMVEVFLERGYKVVSGGTDNHLFLVDLVDKNLTGKEADAALGRANITVNKNSVPNDPKSPFVTSGIRVGTPAITRRGFKEAEAKELAGWMCDVLDSINDEAVIERIKGKVLDICARYPVYA
B6: glyA M201A (protein)
chain: MLKREMNIADYDAELWQAMEQEKVRQEEHIELIASENYTSPRVMQAQGSQLTNKYAEGYPGKRYYGGCEYVDIVEQLAIDRAKELFGADYANVQPHSGSQANFAVYTALLEPGDTVLGMNLAHGGHLTHGSPVNFSGKLYNIVPYGIDATGHIDYADLEKQAKEHKPKMIIGGFSAYSGVVDWAKMREIADSIGAYLFVDAAHVAGLVAAGVYPNPVPHAHVVTTTTHKTLAGPRGGLILAKGGSEELYKKLNSAVFPGGQGGPLMHVIAGKAVALKEAMEPEFKTYQQQVAKNAKAMVEVFLERGYKVVSGGTDNHLFLVDLVDKNLTGKEADAALGRANITVNKNSVPNDPKSPFVTSGIRVGTPAITRRGFKEAEAKELAGWMCDVLDSINDEAVIERIKGKVLDICARYPVYA
B7: glyA M201Q (protein)
chain: MLKREMNIADYDAELWQAMEQEKVRQEEHIELIASENYTSPRVMQAQGSQLTNKYAEGYPGKRYYGGCEYVDIVEQLAIDRAKELFGADYANVQPHSGSQANFAVYTALLEPGDTVLGMNLAHGGHLTHGSPVNFSGKLYNIVPYGIDATGHIDYADLEKQAKEHKPKMIIGGFSAYSGVVDWAKMREIADSIGAYLFVDQAHVAGLVAAGVYPNPVPHAHVVTTTTHKTLAGPRGGLILAKGGSEELYKKLNSAVFPGGQGGPLMHVIAGKAVALKEAMEPEFKTYQQQVAKNAKAMVEVFLERGYKVVSGGTDNHLFLVDLVDKNLTGKEADAALGRANITVNKNSVPNDPKSPFVTSGIRVGTPAITRRGFKEAEAKELAGWMCDVLDSINDEAVIERIKGKVLDICARYPVYA
B8: glyA M201D (protein)
chain: MLKREMNIADYDAELWQAMEQEKVRQEEHIELIASENYTSPRVMQAQGSQLTNKYAEGYPGKRYYGGCEYVDIVEQLAIDRAKELFGADYANVQPHSGSQANFAVYTALLEPGDTVLGMNLAHGGHLTHGSPVNFSGKLYNIVPYGIDATGHIDYADLEKQAKEHKPKMIIGGFSAYSGVVDWAKMREIADSIGAYLFVDDAHVAGLVAAGVYPNPVPHAHVVTTTTHKTLAGPRGGLILAKGGSEELYKKLNSAVFPGGQGGPLMHVIAGKAVALKEAMEPEFKTYQQQVAKNAKAMVEVFLERGYKVVSGGTDNHLFLVDLVDKNLTGKEADAALGRANITVNKNSVPNDPKSPFVTSGIRVGTPAITRRGFKEAEAKELAGWMCDVLDSINDEAVIERIKGKVLDICARYPVYA
B9: glyA V199A (protein)
chain: MLKREMNIADYDAELWQAMEQEKVRQEEHIELIASENYTSPRVMQAQGSQLTNKYAEGYPGKRYYGGCEYVDIVEQLAIDRAKELFGADYANVQPHSGSQANFAVYTALLEPGDTVLGMNLAHGGHLTHGSPVNFSGKLYNIVPYGIDATGHIDYADLEKQAKEHKPKMIIGGFSAYSGVVDWAKMREIADSIGAYLFADMAHVAGLVAAGVYPNPVPHAHVVTTTTHKTLAGPRGGLILAKGGSEELYKKLNSAVFPGGQGGPLMHVIAGKAVALKEAMEPEFKTYQQQVAKNAKAMVEVFLERGYKVVSGGTDNHLFLVDLVDKNLTGKEADAALGRANITVNKNSVPNDPKSPFVTSGIRVGTPAITRRGFKEAEAKELAGWMCDVLDSINDEAVIERIKGKVLDICARYPVYA
B10: glyA V199Q (protein)
chain: MLKREMNIADYDAELWQAMEQEKVRQEEHIELIASENYTSPRVMQAQGSQLTNKYAEGYPGKRYYGGCEYVDIVEQLAIDRAKELFGADYANVQPHSGSQANFAVYTALLEPGDTVLGMNLAHGGHLTHGSPVNFSGKLYNIVPYGIDATGHIDYADLEKQAKEHKPKMIIGGFSAYSGVVDWAKMREIADSIGAYLFQDMAHVAGLVAAGVYPNPVPHAHVVTTTTHKTLAGPRGGLILAKGGSEELYKKLNSAVFPGGQGGPLMHVIAGKAVALKEAMEPEFKTYQQQVAKNAKAMVEVFLERGYKVVSGGTDNHLFLVDLVDKNLTGKEADAALGRANITVNKNSVPNDPKSPFVTSGIRVGTPAITRRGFKEAEAKELAGWMCDVLDSINDEAVIERIKGKVLDICARYPVYA
B11: glyA V199P (protein)
chain: MLKREMNIADYDAELWQAMEQEKVRQEEHIELIASENYTSPRVMQAQGSQLTNKYAEGYPGKRYYGGCEYVDIVEQLAIDRAKELFGADYANVQPHSGSQANFAVYTALLEPGDTVLGMNLAHGGHLTHGSPVNFSGKLYNIVPYGIDATGHIDYADLEKQAKEHKPKMIIGGFSAYSGVVDWAKMREIADSIGAYLFPDMAHVAGLVAAGVYPNPVPHAHVVTTTTHKTLAGPRGGLILAKGGSEELYKKLNSAVFPGGQGGPLMHVIAGKAVALKEAMEPEFKTYQQQVAKNAKAMVEVFLERGYKVVSGGTDNHLFLVDLVDKNLTGKEADAALGRANITVNKNSVPNDPKSPFVTSGIRVGTPAITRRGFKEAEAKELAGWMCDVLDSINDEAVIERIKGKVLDICARYPVYA
B12: glyQ V180A (protein)
chain: MQKFDTRTFQGLILTLQDYWARQGCTIVQPLDMEVGAGTSHPMTCLRELGPEPMAAAYVQPSRRPTDGRYGENPNRLQHYYQFQVVIKPSPDNIQELYLGSLKELGMDPTIHDIRFVEDNWENPTLGAWGLGWEVWLNGMEVTQFTYFQQVGGLECKPVTGEITYGLERLAMYIQGVDSAYDLVWSDGPLGKTTYGDVFHQNEVEQSTYNFEYADVDFLFTCFEQYEKEAQQLLALENPLPLPAYERILKAAHSFNLLDARKAISVTERQRYILRIRTLTKAVAEAYYASREALGFPMCNKDK

target: Escherichia coli (laboratory strain); assay: barcode share on antibiotic plates over drug-free plates; higher = less susceptible; conditions: antibiotic: carbenicillin; 2× MIC (3.1 µg/mL)
Procedure: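 A pool of E. coli strains, each edited to carry one amino-acid change in an essential protein, was grown for 48 h on minimal glucose agar with or without antibiotic; strain barcodes were sequenced; mean of two replicates.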

Protein | fold change of barcode share
B1 | 0.207 ± 0.036
B2 | 0.418 ± 0.025
B3 | 0.279 ± 0.16
B4 | 0.888 ± 0.075
B5 | > 86.8 [active]
B6 | 0.326 ± 0.21
B7 | 0.32 ± 0.027
B8 | 0.821 ± 0.22
B9 | 0.364 ± 0.12
B10 | 0.886 ± 0.54
B11 | > 45.2 [active]
B12 | 0.474 ± 0.13

same assay, conditions: antibiotic: gentamicin; 2× MIC (MIC 0.45 µg/mL)

Protein | fold change of barcode share
B1 | < 0.00607
B3 | < 0.00596
B6 | 0.0117 ± 0.011
B7 | 0.00319 ± 0.0024
B8 | 0.0193 ± 0.006
B9 | < 0.00362
B12 | < 0.014

From the supplement of paper PMC11876631
